Laboratory results reported in the supplement of paper PMC8948288.
Shown are siRNA guide strands that differ only in the seed, positions 2 to 7.

Columns and labels:
H4 = test: cell viability relative to siNT1 (ATP content); H4 human neuroglioma and GL261 mouse glioma; higher = less toxic; conditions: siRNA concentration 10 nM; 96 h; human
Experimental: (§1)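 Arrayed screen of all 4096 6mer seeds. Each seed sits at guide-strand positions 2-7 of a neutral 19mer siRNA backbone (siNT1-based, passenger strand 2'-O-methyl modified at positions 1-2 to block RISC loading, 3' DNA overhangs). The guide strand is built here as U + seed + ACAUGUAAACCA. Cells were reverse transfected in triplicate in 384-well plates (H4 at 10 nM, GL261 at 25 nM) with Lipofectamine RNAiMAX. Viability was read as ATP content (CellTiter-Glo) 96 h after transfection and normalised to siNT1 (%).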

GL261 = test: as above; conditions: siRNA concentration 25 nM; 96 h; mouse
Experimental: as §1
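Further: cells reverse transfected with siRNA duplexes via lipid reagent, ATP read by luminescence, triplicate wells, values scaled to mean viability with non-targeting control siNT1.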

| Sequence | cell viability (H4) [%] | cell viability (GL261) [%] |
| --- | --- | --- |
| UAUUCCUACAUGUAAACCA | 74.5 | 35.8 |
| UAUUCGAACAUGUAAACCA | 92.9 | 63.8 |
| UAUUCGCACAUGUAAACCA | 73.2 | 28.2 |
| UAUUCGGACAUGUAAACCA | 113 | 51.9 |
| UAUUCGUACAUGUAAACCA | 77.2 | 67.9 |
| UAUUCUAACAUGUAAACCA | 55 | 58.4 |
| UAUUCUCACAUGUAAACCA | 85.5 | 17.1 |
| UAUUCUGACAUGUAAACCA | 84 | 73.5 |
| UAUUCUUACAUGUAAACCA | 101 | 61.1 |
| UAUUGAAACAUGUAAACCA | 116 | 57.6 |
| UAUUGACACAUGUAAACCA | 105 | 50.7 |
| UAUUGAGACAUGUAAACCA | 98 | 43.7 |
| UAUUGAUACAUGUAAACCA | 87 | 75.2 |
| UAUUGCAACAUGUAAACCA | 86 | 54.5 |
| UAUUGCCACAUGUAAACCA | 15.3 | 43.5 |
| UAUUGCGACAUGUAAACCA | 91.7 | 58.2 |
| UAUUGCUACAUGUAAACCA | 65.9 | 43.6 |
| UAUUGGAACAUGUAAACCA | 67.4 | 61.4 |
| UAUUGGCACAUGUAAACCA | 69.8 | 9.92 |
| UAUUGGGACAUGUAAACCA | 56.5 | 66.2 |
| UAUUGGUACAUGUAAACCA | 55.4 | 84.5 |
| UAUUGUAACAUGUAAACCA | 72.3 | 80.5 |
| UAUUGUCACAUGUAAACCA | 77.7 | 44.1 |

| Sequence | cell viability (H4) [%] | cell viability (GL261) [%] |
| --- | --- | --- |
| UAUUGUGACAUGUAAACCA | 109 | 64.7 |
| UAUUGUUACAUGUAAACCA | 77.3 | 54.8 |
| UAUUUAAACAUGUAAACCA | 90.1 | 75.4 |
| UAUUUACACAUGUAAACCA | 97 | 60.5 |
| UAUUUAGACAUGUAAACCA | 110 | 62.3 |
| UAUUUAUACAUGUAAACCA | 106 | 50.5 |
| UAUUUCAACAUGUAAACCA | 103 | 62.9 |
| UAUUUCCACAUGUAAACCA | 84.8 | 18.6 |
| UAUUUCGACAUGUAAACCA | 101 | 55.5 |
| UAUUUCUACAUGUAAACCA | 75.3 | 44.7 |
| UAUUUGAACAUGUAAACCA | 116 | 51.3 |
| UAUUUGCACAUGUAAACCA | 68 | 32.4 |
| UAUUUGGACAUGUAAACCA | 96.2 | 43.2 |
| UAUUUGUACAUGUAAACCA | 99.4 | 59.7 |
| UAUUUUAACAUGUAAACCA | 110 | 72.2 |
| UAUUUUCACAUGUAAACCA | 49 | 20.2 |
| UAUUUUGACAUGUAAACCA | 111 | 58.5 |
| UAUUUUUACAUGUAAACCA | 92 | 64.2 |
| UCAAAAAACAUGUAAACCA | 87.7 | 50.4 |
| UCAAAACACAUGUAAACCA | 112 | 67.2 |
| UCAAAAGACAUGUAAACCA | 89.7 | 43.6 |
| UCAAAAUACAUGUAAACCA | 120 | 41.4 |
| UCAAACAACAUGUAAACCA | 112 | 53.2 |

| Sequence | cell viability (H4) [%] | cell viability (GL261) [%] |
| --- | --- | --- |
| UCAAACCACAUGUAAACCA | 77 | 32.3 |
| UCAAACGACAUGUAAACCA | 105 | 64 |
| UCAAACUACAUGUAAACCA | 78.2 | 44.1 |
| UCAAAGAACAUGUAAACCA | 112 | 56.4 |
| UCAAAGCACAUGUAAACCA | 65.9 | 9.35 |
| UCAAAGGACAUGUAAACCA | 92.9 | 46.6 |
| UCAAAGUACAUGUAAACCA | 70.5 | 35.6 |
| UCAAAUAACAUGUAAACCA | 83.8 | 52.5 |
| UCAAAUCACAUGUAAACCA | 85.5 | 42.2 |
| UCAAAUGACAUGUAAACCA | 100 | 59.1 |
| UCAAAUUACAUGUAAACCA | 113 | 88.9 |
| UCAACAAACAUGUAAACCA | 95.3 | 58.9 |
| UCAACACACAUGUAAACCA | 103 | 35.1 |
| UCAACAGACAUGUAAACCA | 83.2 | 41.3 |
| UCAACAUACAUGUAAACCA | 91.7 | 63 |
| UCAACCAACAUGUAAACCA | 66.9 | 61 |
| UCAACCCACAUGUAAACCA | 48.4 | 35.3 |
| UCAACCGACAUGUAAACCA | 100 | 34.7 |
| UCAACCUACAUGUAAACCA | 71.4 | 40.6 |
| UCAACGAACAUGUAAACCA | 75.1 | 40.7 |
| UCAACGCACAUGUAAACCA | 82.3 | 46.3 |
| UCAACGGACAUGUAAACCA | 100 | 58.5 |
| UCAACGUACAUGUAAACCA | 88.8 | 56 |

| Sequence | cell viability (H4) [%] | cell viability (GL261) [%] |
| --- | --- | --- |
| UCAACUAACAUGUAAACCA | 87.6 | 46.6 |
| UCAACUCACAUGUAAACCA | 82.3 | 62.8 |
| UCAACUGACAUGUAAACCA | 93.5 | 50.2 |
| UCAACUUACAUGUAAACCA | 111 | 48 |
| UCAAGAAACAUGUAAACCA | 117 | 91.7 |
| UCAAGACACAUGUAAACCA | 60.9 | 38.7 |
| UCAAGAGACAUGUAAACCA | 85.4 | 90.5 |
| UCAAGAUACAUGUAAACCA | 77.4 | 39.7 |
| UCAAGCAACAUGUAAACCA | 115 | 63.4 |
| UCAAGCCACAUGUAAACCA | 41.9 | 19.7 |
| UCAAGCGACAUGUAAACCA | 107 | 53.4 |
| UCAAGCUACAUGUAAACCA | 94.3 | 57.5 |
| UCAAGGAACAUGUAAACCA | 93.6 | 63.5 |
| UCAAGGCACAUGUAAACCA | 44.4 | 16.5 |
| UCAAGGGACAUGUAAACCA | 84.5 | 30.7 |
| UCAAGGUACAUGUAAACCA | 60.2 | 35.6 |
| UCAAGUAACAUGUAAACCA | 95.8 | 66.4 |
| UCAAGUCACAUGUAAACCA | 68 | 29.6 |
| UCAAGUGACAUGUAAACCA | 99.9 | 61.5 |
| UCAAGUUACAUGUAAACCA | 104 | 46.5 |
| UCAAUAAACAUGUAAACCA | 86.2 | 59.6 |
| UCAAUACACAUGUAAACCA | 81.1 | 37.3 |
| UCAAUAGACAUGUAAACCA | 121 | 48.4 |

| Sequence | cell viability (H4) [%] | cell viability (GL261) [%] |
| --- | --- | --- |
| UCAAUAUACAUGUAAACCA | 101 | 65.4 |
| UCAAUCAACAUGUAAACCA | 108 | 42.6 |
| UCAAUCCACAUGUAAACCA | 43.9 | 23.6 |
| UCAAUCGACAUGUAAACCA | 82.7 | 50.5 |
| UCAAUCUACAUGUAAACCA | 85.4 | 47.6 |
| UCAAUGAACAUGUAAACCA | 104 | 88.3 |
| UCAAUGCACAUGUAAACCA | 75.3 | 15.2 |
| UCAAUGGACAUGUAAACCA | 73.8 | 54.9 |
| UCAAUGUACAUGUAAACCA | 82 | 44.5 |
| UCAAUUAACAUGUAAACCA | 118 | 66.9 |
| UCAAUUCACAUGUAAACCA | 81.2 | 62.1 |
| UCAAUUGACAUGUAAACCA | 113 | 79.3 |
| UCAAUUUACAUGUAAACCA | 87.2 | 53.5 |
| UCACAAAACAUGUAAACCA | 90.3 | 31.7 |
| UCACAACACAUGUAAACCA | 89.8 | 17.1 |
| UCACAAGACAUGUAAACCA | 95.3 | 48.4 |
| UCACAAUACAUGUAAACCA | 87.8 | 24.1 |
| UCACACAACAUGUAAACCA | 97.2 | 42.9 |
| UCACACCACAUGUAAACCA | 40.3 | 19.8 |
| UCACACGACAUGUAAACCA | 105 | 21.4 |
| UCACACUACAUGUAAACCA | 75.3 | 20.2 |
